The campaign covered roughly 2,300 compounds. About 330 (14%) showed activity.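 How the source made its calls: active = median modified Z-score above 1.96; inactive = 1.96 or below.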 This is a selection; strong and weak results do not stand in their true shares.
What follows are compounds tested on HepG2 Srxn1-GFP reporter cells (+30 nM CDDO-Me) (assay: Srxn1-GFP intensity median modified Z-score relative to plate median; higher = stronger NRF2 / oxidative stress reporter activation, active = hit call of the paper). Settings: 10 µM; exposure time: 24h.
In short: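 HepG2 Srxn1-GFP BAC reporter cells were seeded at 20,000 per well in 96-well plates and co-exposed for 24 h to compound at 10 μM and an NRF2 activator at 30 nM, with DMSO at ≤0.1%, in three replicate plates. Cells were fixed with formaldehyde, stained with Hoechst and imaged by confocal microscopy, and cytoplasmic GFP was measured per cell, with images holding under 100 cells discarded. The reported value is the median over replicates of each plate's modified Z-score of GFP intensity. For this score, scaling used 1.4826 × median absolute deviation.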

Compound	Srxn1-GFP intensity median modified Z-score
CN(C)CCc1c[nH]c2ccc(Cn3cncn3)cc12 [euspeclibcmpd998]	inactive: 0.0248
Nc1ccc(S(=O)(=O)c2ccc(N)cc2)cc1 [euspeclibcmpd82]	inactive: 0
OC[C@H]1O[C@@H](Oc2ccc(O)cc2)[C@H](O)[C@@H](O)[C@@H]1O [euspeclibcmpd1710]	inactive: -0.0575
NC(=O)NC(CC(=O)O)C(=O)O (stereo not given)	inactive: 1.02
CCN(CC)Cc1ccc(N=c2cc[nH]c3cc(Cl)ccc23)cc1O [euspeclibcmpd22]	active: 3.72
O=C(O[C@H]1CN2CCC1CC2)N1CCc2ccccc2[C@@H]1c1ccccc1 [euspeclibcmpd807]	inactive: -0.131
CN1CCCCC1CCN1c2ccccc2Sc2ccc([S+](C)[O-])cc21 (stereo not given) [euspeclibcmpd700]	inactive: -0.503
CN1CCCC(n2nc(Cc3ccc(Cl)cc3)c3ccccc3c2=O)CC1 (stereo not given) [euspeclibcmpd749]	inactive: 0.118
CN(C)CCC[C@@]1(c2ccc(F)cc2)OCc2cc(C#N)ccc21 [euspeclibcmpd2158]	inactive: 0.664
N=c1ncn([C@@H]2O[C@H](CO)[C@@H](O)[C@H]2O)c(=O)[nH]1 [euspeclibcmpd436]	active: 15.1
CC1=CC(=O)NS(=O)(=O)O1 [euspeclibcmpd2309]	inactive: -0.191
COc1ccc(CC(N)C(=O)N[C@@H]2[C@@H](CO)OC(n3cnc4c(N(C)C)ncnc43)[C@@H]2O)cc1 (stereo not given in full) [euspeclibcmpd2118]	active: 2.51
COc1cc(-c2coc3cc(O)c(OC)c(O)c3c2=O)cc(O)c1OC [euspeclibcmpd1394]	inactive: 1.24
NC1(C(=O)O)CCCC1 [euspeclibcmpd1759]	inactive: -0.415
COc1cc2cc3c4cc(OC)c(OC)cc4cc[n+]3c(C)c2cc1OC [euspeclibcmpd1974]	inactive: 0.119
O=C(C=Cc1ccccc1)c1ccc(O)cc1O [euspeclibcmpd1990]	active: 2.48
Cc1scc2c1N(C(=O)CN1CCN(C)CC1)c1ccccc1NC2=O [euspeclibcmpd763]	inactive: 0.0543
Cc1cccc(Nc2ccccc2C(=O)OCC#N)c1C	inactive: 0.491
CC(=O)c1ccc(S(=O)(=O)NC(=O)NC2CCCCC2)cc1 [euspeclibcmpd1292]	inactive: 0.678
COc1ccc(CN(CCN(C)C)c2ccccn2)cc1 [euspeclibcmpd258]	inactive: -0.439
CCCNC(C)C(=O)Nc1ccccc1C (stereo not given) [euspeclibcmpd565]	inactive: -0.4
CC(COc1ccccc1)N(CCCl)Cc1ccccc1 (stereo not given) [euspeclibcmpd203]	active: 3.84
O=C(NCc1ccccc1)OCCO [euspeclibcmpd2412]	inactive: -0.457
CN(C)CCN(Cc1cccs1)c1ccccn1 [euspeclibcmpd547]	inactive: -0.889
NC(=O)N1c2ccccc2C=Cc2ccccc21 [euspeclibcmpd44]	inactive: -0.0932

Compound	Srxn1-GFP intensity median modified Z-score
CCOc1cccc(C(=O)c2ccc(O)c(O)c2O)c1 [euspeclibcmpd1514]	inactive: -0.219
O=c1cc(-c2ccc(O)cc2)oc2cc(O)cc(O)c12 [euspeclibcmpd1685]	inactive: -0.332
CCOc1cc(/C=C/C(=O)O)ccc1OC	inactive: 0.394
CC(C)NCC(O)COc1ccc(COCCOC(C)C)cc1 (stereo not given) [euspeclibcmpd915]	inactive: 0.0906
C#CCCCCCCCCCCCC(O)CC(O)CO (stereo not given) [euspeclibcmpd1458]	active: 4.24
COc1c2ccoc2nc2c(OC)c(OCC(O)C(C)(C)O)ccc12 (stereo not given) [euspeclibcmpd1658]	active: 26
OC[C@H]1O[C@@H](O[C@H]2[C@H](O)[C@@H](O)[C@@H](O)O[C@@H]2CO)[C@H](O)[C@@H](O)[C@@H]1O [euspeclibcmpd2099]	inactive: -0.374
CC[C@H](/C=C/C(C)C1CCC2C3CC=C4CC(=O)CC[C@]4(C)C3CC[C@]12C)C(C)C (stereo not given in full) [euspeclibcmpd1667]	inactive: -0.11
COc1ccc2cc(C(C)C(=O)O)ccc2c1 (stereo not given) [euspeclibcmpd205]	inactive: 0.182
Nc1ccc2cc3ccc(N)cc3nc2c1 [euspeclibcmpd1172]	active: 35.6
Oc1ccc(C(O)O)[nH]1 [euspeclibcmpd1237]	inactive: -0.421
CC12CCC(CC1)C(C)(C)O2 [euspeclibcmpd124]	inactive: -0.228
Cc1cc(CC(=O)O)n(C)c1C(=O)c1ccc(Cl)cc1 [euspeclibcmpd323]	inactive: -0.111
CC(C)CC1NC(=O)C(CCCN)NC(=O)C(C(C)C)NC(=O)C(Cc2ccc(O)cc2)NC(CCC(=O)O)C(=O)NC(CC(N)=O)C(=O)C(Cc2ccccc2)NC(=O)C(Cc2ccccc2)NC(=O)C2CCCN2C(=O)C(Cc2ccccc2)NC1=O (stereo not given) [euspeclibcmpd1841]	active: 2.86
COc1c(O)cccc1O [euspeclibcmpd1665]	active: 3.35
C[C@@H]1CC2C3CC=C4CC(=O)C=C[C@]4(C)[C@@]3(Cl)[C@@H](O)C[C@]2(C)[C@@]1(OC(=O)c1ccco1)C(=O)CCl (stereo not given in full) [euspeclibcmpd756]	active: 2.37
O=C(NCC(O)CO)c1c(I)c(C(=O)NCC(O)CO)c(I)c(N(CCO)C(=O)CO)c1I (stereo not given) [euspeclibcmpd1078]	inactive: -0.538
CC(=O)O[C@@H]1CC2C(C)(C)C(=O)C3OC3[C@]2(C)C2CC[C@@]3(C)[C@H](c4ccoc4)OC(=O)C4OC43[C@@]21C (stereo not given in full) [euspeclibcmpd1644]	active: 5.41
CC(=O)NC(CCC(C)C)C(=O)O (stereo not given)	inactive: 1.23
C=CC1=C(C(=O)O)N2C(=O)C(NC(=O)C(=NO)c3csc(=N)[nH]3)C2SC1 (stereo not given) [euspeclibcmpd718]	inactive: -0.455
CC1Cc2ccccc2N1NC(=O)c1ccc(Cl)c(S(N)(=O)=O)c1 (stereo not given) [euspeclibcmpd159]	inactive: -0.418
O=C(O)C1CCCN1 (stereo not given) [euspeclibcmpd2273]	inactive: -0.414
COC(=O)C(C)=CCC12OC(C)(C)C3CC(=CC4C(=O)c5c(OC)c6c(c(CC=C(C)C)c5OC431)OC(C)(CCC=C(C)C)C=C6)C2=O (stereo not given) [euspeclibcmpd2284]	active: 55.9
O=c1cc[nH]c(=S)[nH]1 [euspeclibcmpd1261]	inactive: 0.114
CC(=O)OC1CC2CCC1(C)C2(C)C (stereo not given) [euspeclibcmpd1103]	inactive: -0.685

Compound	Srxn1-GFP intensity median modified Z-score
NCCC(=O)NC(Cc1c[nH]cn1)C(=O)O (stereo not given) [euspeclibcmpd1431]	inactive: -0.178
O=C1CC2(CCCC2)CC(=O)N1CCCCN1CCN(c2ncccn2)CC1 [euspeclibcmpd948]	inactive: 0.569
Cc1cc(/C=C/c2ccc3cc(N(C)C)ccc3[n+]2C)c(C)n1-c1ccccc1 [euspeclibcmpd260]	active: 28.6
CCn1nc(C(=O)O)c(=O)c2cc3c(cc21)OCO3 [euspeclibcmpd65]	inactive: 0.384
CC(C(=O)O)c1ccc(N2Cc3ccccc3C2=O)cc1 (stereo not given) [euspeclibcmpd335]	inactive: -0.117
CN(C)CCOc1ccc(/C(=C(/CCCl)c2ccccc2)c2ccccc2)cc1 [euspeclibcmpd946]	active: 93.7
O=C(NCCO[N+](=O)[O-])c1cccnc1 [euspeclibcmpd2219]	inactive: 0.164
O=C(NCCO[N+](=O)[O-])c1cccnc1 [euspeclibcmpd2369]	inactive: 0.164
CC1CC(OC(=O)C(O)c2ccccc2)CC(C)(C)N1C (stereo not given) [euspeclibcmpd2001]	inactive: -0.576
CCCC1O[C@@H]2CC3C4CC=C5CC(=O)C=CC5(C)C4[C@@H](O)CC3(C)[C@]2(C(=O)CO)O1 (stereo not given in full) [euspeclibcmpd352]	inactive: -0.649
O=C1C2CC3CC1CC(O)(C3)C2 [euspeclibcmpd1208]	inactive: -0.128
CCN1CCN(c2cc3c(cc2F)c(=O)c(C(=O)O)cn3C2CC2)CC1 [euspeclibcmpd683]	inactive: -0.544
COC1=CC(=O)C(=O)C=C1C=CCc1ccccc1 [euspeclibcmpd1419]	active: 9.05
O=C(O)COC(=O)Cc1ccccc1Nc1c(Cl)cccc1Cl [euspeclibcmpd1099]	inactive: 0.786
COc1ccc2c(c1)c(CC(=O)Nc1nccs1)c(C)n2C(=O)c1ccc(Cl)cc1	inactive: 1.66
OC1(c2ccc(Cl)c(C(F)(F)F)c2)CCN(CCCC(c2ccc(F)cc2)c2ccc(F)cc2)CC1 [euspeclibcmpd587]	inactive: -1.37
O=C(O)CCCc1ccccc1 [euspeclibcmpd2401]	inactive: 0.409
CC(=O)Oc1cc(OC(C)=O)c2c(c1)O[C@H](c1ccc(OC(C)=O)c(OC(C)=O)c1)[C@H](OC(C)=O)C2 [euspeclibcmpd2220]	inactive: 0
CN1CCN(CCCN2c3ccccc3Sc3ccc(Cl)cc32)CC1 [euspeclibcmpd249]	active: 3.78
N=c1[nH]c(=S)c2nc[nH]c2[nH]1 [euspeclibcmpd292]	active: 28.2
NCCCCS(=O)(=O)O	active: 10.1
CC(C)/N=c1\cc2n(-c3ccc(Cl)cc3)c3ccccc3[nH]c-2cc1=Nc1ccc(Cl)cc1 [euspeclibcmpd891]	active: 7.89
C1CNCCN1 [euspeclibcmpd2044]	active: 5.44
COc1c2occc2c(OC)c2c(=O)cc(C)oc12 [euspeclibcmpd1011]	inactive: -0.716
CC1CCC2[C@@]3(C)C=CC(=O)C(C)(C)C3CC3OC(=O)C(=O)C1[C@]32C (stereo not given in full) [euspeclibcmpd1535]	active: 9.38

— the supplement of paper PMC10498489
